Source: PubChem BioAssay AID624417 (National Center for Advancing Translational Sciences (NCATS), 2012)
In all, about 410,000 compounds went through this assay and about 6,400 (1.6%) were called active. This list was built around the results that the source calls inconclusive (neither active nor inactive); the mix of calls is not that of the screen. Calls follow the shape of the dose curve; as a rule, active = well fitted inhibition curve with a large enough effect; inconclusive = small, poorly fitted or top-dose-only effect; inactive = no such curve, though single readings can be large or run the other way. Where the call is inconclusive, the potency comes from a doubtful curve fit.

Biological target: Glucagon-like peptide 1 receptor (Homo sapiens) (UniProt P43220)
Chain of UniProt P43220 (P43220 whole entry, looked up): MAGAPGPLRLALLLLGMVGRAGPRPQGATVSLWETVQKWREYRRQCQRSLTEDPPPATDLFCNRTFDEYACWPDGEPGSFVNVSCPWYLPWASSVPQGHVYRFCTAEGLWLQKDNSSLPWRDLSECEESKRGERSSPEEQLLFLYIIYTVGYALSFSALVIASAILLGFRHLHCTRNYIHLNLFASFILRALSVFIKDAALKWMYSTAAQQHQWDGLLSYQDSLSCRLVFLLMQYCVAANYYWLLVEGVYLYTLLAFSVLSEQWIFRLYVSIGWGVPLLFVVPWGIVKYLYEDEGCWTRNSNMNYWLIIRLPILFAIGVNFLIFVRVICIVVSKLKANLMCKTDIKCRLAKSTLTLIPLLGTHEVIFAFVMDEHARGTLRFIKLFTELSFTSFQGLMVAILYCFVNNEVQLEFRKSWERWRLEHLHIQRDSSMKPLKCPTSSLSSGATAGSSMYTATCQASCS
Assay: qHTS of GLP-1 Receptor Inverse Agonists (Inhibition Mode); also: nearly all actives have a fitted effect of over 55% in size
Settings: HEK293 GLP-1R CRE-luciferase, luminescence, 24 h, GLP-1R form is constitutively active; series mostly up to 38.3 µM
How it was run: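 Cells are plated, allowed 12 hours at 37 deg C, then treated with compounds for 24 hr before luciferase detection reagent is added and luminescence is read after 12 min at room temperature. The HEK293 line carries constitutively active GLP-1R with a cAMP-responsive reporter.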
Potency is read from the fitted curve at half-maximal effect; tags tell the direction and shape of the fitted curve.

Potency, active:
NC(=O)C(C(=O)/C=C/c1ccc(Cl)cc1)=C1SCCS1 3.98 µM
CCCCNc1c(-c2ccc(SC3CCCCC3)c(OC)c2)nc2ccc(C)cn12 8.91 µM
COC(=O)c1ccc(C23CC4(C2)[C@H](CN(Cc2cccnc2)[C@@H]4c2ccccc2)C3c2ccccc2)cc1 (some centres undefined) 8.91 µM
O=C(c1ccccc1)C1N=NCC1c1ccc(Cl)cc1 (centres undefined) 10 µM

Potency, inactive:
COc1ccc(-c2cc(C(F)(F)F)n3ncc(C(=O)O)c3n2)cc1OC
O=C(CS(=O)(=O)c1cccc2nsnc12)Nc1cc(F)ccc1F
CSc1ccc(CC2C(=O)Nc3ccccc32)cc1 (centres undefined)
CCC(=O)N1CCN(c2ccc(Cl)cc2NC(=O)Cc2ccc(Cl)cc2)CC1
CCOC(=O)c1cccc(NS(=O)(=O)c2cc3[nH]c(=O)c(=O)[nH]c3cc2C)c1
CC(=O)CC1OC(=O)C(Br)=C1NCc1ccccc1 (centres undefined)
O=S1(=O)NC2CCCCCN2c2ccc(F)cc21 (centres undefined)
CN1C(=O)C2C=CC1C1C(=O)N(c3ccccc3)C(=O)C21 (centres undefined)
CC(=O)Nc1cc(C(=O)N2CCCC2)ccc1Sc1ccc(Cl)cc1
Cc1ccc2c(c1C)NC(C(=O)O)C1CC=CC21 (centres undefined)
Cc1cccc(NC(=O)c2sc(-n3nc(C)c(CCC(C)C)c3C)nc2C)c1C
CCc1cccc(C)c1NC(=O)CN1C(=O)C2(SCC(=O)N2c2cc(C)cc(C)c2)c2ccccc21 (centres undefined)
CN(C)S(=O)(=O)c1ccc2c(c1)N(CC(=O)N1CCN(c3ccccc3F)CC1)CCS2
CCC1CCCCN1C(=O)c1cc(COc2ccc3ncccc3c2)on1 (centres undefined)

Potency, inconclusive:
O=C(Nc1ccc2c(c1)OCO2)C1CCN(C(=O)c2ccc(Cl)cc2)CC1 1 µM [inhibitor, full curve, poor fit]
CCNc1nc(NC(C)(C)C)nc(N2CCCC2)n1 28.2 µM [inhibitor, single point]
O=C(Cc1ccc(S(=O)(=O)N2CCOCC2)s1)Nc1ccc(Br)c(C(F)(F)F)c1 3.16 µM [inhibitor, partial curve, poor fit]
O=C(NCc1cccnc1)NC1(C(F)(F)F)Oc2ccc(Cl)cc2O1 (centres undefined) 28.2 µM [inhibitor, single point]
COc1ccc(O)c(/C=N/NC(=O)CCC(=O)Nc2cccc(C)c2)c1 28.2 µM [inhibitor, single point]
CCOC(=O)N1CCC(N2CCCC(C(=O)c3ccccc3OC)C2)CC1 (centres undefined) 1.78 µM [inhibitor, partial curve, poor fit]
CCN(CC(=O)Nc1ccc(NC(C)=O)cc1)C(=O)c1cc(-c2ccccc2Cl)nc2ccccc12 22.4 µM [inhibitor, partial curve, poor fit]
O=C(N/N=C\c1cc(Cl)ccc1O)c1ccc(S(=O)(=O)N2CCCCC2)cc1 2 µM [inhibitor, full curve, poor fit]
Cc1cc(C)c(C(=O)C(C)OC(=O)c2ccc(Cl)nc2)cc1C (centres undefined) 11.2 µM [inhibitor, partial curve, poor fit]
O=C(NCc1cccnc1)C1Cc2c(-c3ccc(Cl)cc3)ccnc2O1 (centres undefined) 2.24 µM [inhibitor, full curve, poor fit]
COc1ccccc1NC(=O)CNC(=O)CC12CC3CC(CC(C3)C1)C2 28.2 µM [inhibitor, single point]
COc1ccc(-c2sc3ccccc3c2/C=C/c2ccncc2)cc1 11.2 µM [inhibitor, single point]
c1cc2c(cc1C1CCCCC1)c1c3n2CCN=C3CCC1 12.6 µM [inhibitor, partial curve, poor fit]
CCn1ncc(/C=N/N=C2\CCC3C4CCc5cc(O)ccc5C4CCC23C)c1C (centres undefined) 10 µM [inhibitor, single point]
Cc1ccc(C(C)NC(=O)Cc2cccs2)c(C)c1 (centres undefined) 2.82 µM [inhibitor, single point]
Cc1cc(NC(=O)COC(=O)c2ccc(S(=O)(=O)N3CCCc4ccccc43)cc2)no1 2 µM [inhibitor, full curve, poor fit]
Cc1c(C(=O)N(Cc2ccc(Cl)cc2)CC2CCCO2)oc2ccc(F)cc12 (centres undefined) 28.2 µM [inhibitor, single point]
Cc1ccc(S(=O)(=O)NC(C)(C)CSc2nnc(Nc3ccccc3)s2)cc1 14.1 µM [inhibitor, single point]
Cc1cccc(-n2c(C)nc3cc(C(=O)NC4CCCCCC4)ccc32)c1 11.2 µM [inhibitor, partial curve]
COc1cccc(C(N)c2nc(-c3csc4ccccc34)cs2)c1 (centres undefined) 5.62 µM [inhibitor, full curve, poor fit]
COc1cccc(CNC(=O)COCc2cc(-c3ccc4c(c3)OCO4)on2)c1 22.4 µM [inhibitor, single point]
CCOC(=O)C1(CCOc2ccccc2)CCN(Cc2ccc(OCCO)cc2)CC1 10 µM [inhibitor, partial curve, poor fit]
CC(C)(C)Cc1c(-c2ccccc2)nc2ccc(Br)cn12 8.91 µM [inhibitor, partial curve, poor fit]
CCCc1ncc(C(O)(c2ccccc2)c2ccc(C)cc2)n1C (centres undefined) 10 µM [inhibitor, partial curve, poor fit]
CC1CC(C)CN(c2ncnc3c2cnn3-c2ccc(Cl)cc2)C1 (centres undefined) 3.16 µM [inhibitor, partial curve, poor fit]
CC(C)C(=O)Nc1cc(S(=O)(=O)Nc2cccc(Cl)c2)ccc1Cl 11.2 µM [inhibitor, partial curve, poor fit]
COC(=O)[C@]12CCCCC=C1N(Cc1ccc(Cl)cc1Cl)C(=O)[C@H](CC(=O)N1CCN(C(=O)C3CC3)CC1)C2 12.6 µM [inhibitor, single point]
CCOc1ccccc1NC(=O)CN1CCCN(Cc2cccc(Cl)c2)S1(=O)=O 14.1 µM [inhibitor, partial curve, poor fit]
CC(C)NC(=O)CSc1nc2ccccc2n1-c1ccccc1 10 µM [inhibitor, partial curve, poor fit]
Cc1ccc(N(CC(=O)NC(C)(C)C)C(=O)CCC(=O)Nc2nccs2)cc1C 3.16 µM [inhibitor, partial curve, poor fit]
Cc1ccc(C(=O)N2N=C(c3ccccc3)CC2(O)C(F)(F)F)o1 (centres undefined) 11.2 µM [inhibitor, partial curve, poor fit]
CC1CCN(CCCNC(=O)c2ccc3c(Cl)c4c(nc3c2)CCCC4)CC1 3.98 µM [inhibitor, full curve, poor fit]
Cc1ccc(C2=Nc3ccccc3NC(C)(c3ccc(C)o3)C2)o1 (centres undefined) 8.91 µM [inhibitor, partial curve]
COc1ccc(NC(=O)CN2CCCC2c2cccs2)cc1S(=O)(=O)N1CCCCC1 (centres undefined) 28.2 µM [inhibitor, single point]
O=C(NCCc1ccccc1)C1CCN(S(=O)(=O)N2CCCCCC2)CC1 28.2 µM [inhibitor, single point]
COc1ccc(/C=N/NC(=O)c2ccc(N(C)S(=O)(=O)c3ccccc3)cc2)cc1 10 µM [inhibitor, single point]
O=S(=O)(c1ccc2[nH]c3c(c2c1)CCCCC3)N1CCN(c2cccc(Cl)c2)CC1 10 µM [inhibitor, partial curve, poor fit]
COc1ccccc1NC(=O)N(Cc1ccco1)Cc1cc2ccc(C)c(C)c2[nH]c1=O 1.41 µM [inhibitor, full curve]
CC1(c2ccccc2)CC(C)(C)N(C(=O)c2cc([N+](=O)[O-])cc([N+](=O)[O-])c2)c2ccccc21 (centres undefined) 28.2 µM [inhibitor, single point]
CC1=C(C(=O)Nc2cccc(C(F)(F)F)c2)C2(CCCCC2)OC1=O 10 µM [inhibitor, partial curve, poor fit]
CCc1cc(C(=O)N2CCCC(C(=O)c3ccc(Oc4ccccc4)cc3)C2)n(C)n1 (centres undefined) 10 µM [inhibitor, partial curve, poor fit]
COc1ccc(S(=O)(=O)N2c3ccccc3OCC2C)cc1 (centres undefined) 1 µM [inhibitor, full curve, poor fit]
O=C(Nc1ccc(F)c(F)c1)NC1CCCCC1 8.91 µM [inhibitor, partial curve, poor fit]
CC(CCc1ccccc1)NC(=O)Cn1cccc1C(=O)c1ccccc1 (centres undefined) 3.98 µM [inhibitor, partial curve, poor fit]
N/C(=N\OC(=O)/C=C/c1ccccc1)c1ccccn1 12.6 µM [inhibitor, single point]
C=CCOc1cccc(C(=O)N2CCCC(Nc3ccc(F)cc3)C2)c1 (centres undefined) 11.2 µM [inhibitor, partial curve, poor fit]
